± gives the standard deviation of the averaged measurements. The list shows a part of the results.
tested on: PfAP2-I AP2 domain 3 (GST-tagged); assay: gcPBM binding intensity (ln(normalized median fluorescence intensity)); higher = stronger DNA binding
Summary of the method: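 In this array assay, P. falciparum DNA-binding domains with a GST tag, expressed in E. coli, were applied for 1 h to primer-extended double-stranded 36-bp intergenic genomic probes and negative controls on an Agilent 4 × 180k array. Bound protein was visualised with Alexa488 anti-GST antibody at 488 nm. Binding intensity is the highest Masliner-normalised natural-log median intensity across replicate spots of either probe orientation.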

“CTGCCTTCCATACCCACACACTTCCCATATATTTTA [CACACA_site5491]” and “TTTTTTATTGTGAAACTGATATTATATTTTTTATAA [GTGCAC_negctrl_site559]” are within error of each other in “gcPBM binding intensity (ln)” value: 8.35 ± 0.58 for the first, 7.41 ± 0.57 for the second.

“TAAACATTTTTAATTTTGTAAAATTTTAAATAAAAA [XGTACX_negctrl_site612]” and “TGAATATTTTATGATTGTACATATTATAATAAACAT [XGTACX_site6113]” are within error of each other in “gcPBM binding intensity (ln)” value: 7.49 ± 0.54 for the first, 7.8 ± 0.55 for the second.

“ACAAACAAAGAAAGAACACACATACACAAGATACCT [CACACA_site7353]” and “TCGAACATTAACATAACACACATATAGATTTATATA [CACACA_site7380]” are within error of each other in “gcPBM binding intensity (ln)” value: 7.75 ± 0.67 for the first, 7.8 ± 0.25 for the second.

“TATTATATATATAGGTGTACGCATTTGTCCTTTATA [XGTACX_site1385]” and “AAACTTATGTTTACATGTACAGAACTTTATATTATG [XGTACX_site4843]” are within error of each other in “gcPBM binding intensity (ln)” value: 7.79 ± 0.57 for the first, 7.58 ± 0.52 for the second.

“TTGTATGCTTCCCGACTACATTATGCCATAAATGTA [TGCATGCA_negctrl_site136]” and “TTATTCTTTAACTAAAATTATATATATATATTATAC [CACACA_negctrl_site1597]” are within error of each other in “gcPBM binding intensity (ln)” value: 7.92 ± 0.49 for the first, 7.6 ± 0.52 for the second.

“TTAAGAATATTTTCATGTACTCATTTTTTTTGTTAT [XGTACX_site1814]” and “AATAAAAATATATCCACACACATATATAAATATGTA [CACACA_site6415]” are the same in “gcPBM binding intensity (ln)” value: 7.79 ± 0.4 for the first, 7.79 ± 0.2 for the second.

Going from “ATAACTTATTTTTAAAGTACATTATTATATATATAT [XGTACX_site1620]” to “ATTGTAATAAATTGTAGTACATGTAAGGTTTTATTT [XGTACX_site1005]”, the “gcPBM binding intensity (ln)” value falls from 8.915 ± 0.007 to 7.88 ± 0.55.

Going from “ATTACATATGTGAGTTGTACTATAAATATATAATAT [XGTACX_site3718]” to “TTTATTATCTTATTCACACACATATATATATATATA [CACACA_site2869]”, the “gcPBM binding intensity (ln)” value rises from 7.88 ± 0.3 to 9.4 ± 0.36.

“ATATATTTTTACCATACACACATATAACAAATATAT [CACACA_site7706]” and “AGAAAAAAAAAAAAAAAAAAAAAATTGAATATATAT [TGCATGCA_negctrl_site55]” are within error of each other in “gcPBM binding intensity (ln)” value: 8.24 ± 0.48 for the first, 7.67 ± 0.81 for the second.

Compared with “GAAGAATAAATATGCACACATGCATATATTTTTACA [CACACA_site3459]”, “TACAATTCGTAATACACACACATATATATATATATT [CACACA_site3751]” is lower in “gcPBM binding intensity (ln)” value: 10.3 ± 0.32 for the first, 8.02 ± 0.38 for the second.

First: TAAAAAAATTTAACATGTACAAATATTGAAAAGGAC [XGTACX_site7608]
Second: ATTAAAAAAGAATATACACACCAAAACTGTTTGTTA [CACACA_site4687]
The “gcPBM binding intensity (ln)” value of the first is higher: 8.61 ± 0.49 for the first, 7.58 ± 0.37 for the second.

First: GTAAGTTGTGCATTCACACACATATATATATATATA [CACACA_site3303]
Second: TTTTGTTTCTATATAAGATGGAAATATAAACTTGTA [CACACA_negctrl_site82]
The “gcPBM binding intensity (ln)” value of the first is higher: 9.92 ± 0.18 for the first, 7.64 ± 0.47 for the second.

Going from “TTAAGATCCTAAAAAACACACAATTGTGAATAATAA [CACACA_site3872]” to “TATATATATATATATACATGCATATATATAATATAT [TGCATGCA_site763]”, the “gcPBM binding intensity (ln)” value rises from 7.63 ± 0.8 to 9.24 ± 0.57.

“AAATATATATAAATGAGTACTTATGGTAACATATAT [XGTACX_site6362]” and “AAAAAATATTGAAGTACACACATTATGAACTTTTTT [CACACA_site1733]” are within error of each other in “gcPBM binding intensity (ln)” value: 7.79 ± 0.46 for the first, 7.71 ± 0.32 for the second.

“ATAAATAATTATAATTGTACACATATATATATATAC [XGTACX_site3998]” and “TTCCACATTTTACAGACACACACAATTTATATTACG [CACACA_site8572]” are within error of each other in “gcPBM binding intensity (ln)” value: 7.99 ± 0.42 for the first, 8.05 ± 0.5 for the second.

“AGAGCATAATAAAACACACACATACATACCTATATA [CACACA_site6566]” and “TGTTTTTATAATATTAGTACATAATATACATAATTC [XGTACX_site2787]” are within error of each other in “gcPBM binding intensity (ln)” value: 7.84 ± 0.51 for the first, 7.75 ± 0.4 for the second.

Going from “AATAAATTAATTTTGGGTACATATATATATATATAT [XGTACX_site3807]” to “TTTACAAAAAATTATACACACACGTACAGATAAATA [CACACA_site4678]”, the “gcPBM binding intensity (ln)” value falls from 9.46 ± 0.3 to 8.09 ± 0.49.

“TCCTCATTTTATCATACACACTTGTTTATATGGGTG [CACACA_site4650]” and “ATAATTTATTTTAAAAGTACTCAATTTGCTTTTCTC [XGTACX_site5749]” are within error of each other in “gcPBM binding intensity (ln)” value: 7.79 ± 0.49 for the first, 7.68 ± 0.61 for the second.

“ACCCATAAAAATTATGCACACTTAATAAAGCGAAAT [CACACA_site5722]” and “AAATAATTAAACATATGTACATATTATATATATATA [XGTACX_site6774]” are within error of each other in “gcPBM binding intensity (ln)” value: 10.1 ± 0.57 for the first, 9.2 ± 0.36 for the second.

“TATATTTATTATAATTGTACATAAAATAAACTAAGA [XGTACX_site4318]” and “CAAAAAAAAAAAAAAACACACATTAAATTAGAAAGA [CACACA_site7271]” are within error of each other in “gcPBM binding intensity (ln)” value: 7.67 ± 0.25 for the first, 7.4 ± 0.69 for the second.

“ATATACATTTAAATGTGTACATAATAAAATAAAAAA [XGTACX_site8170]” and “AATATTTATATTTAGTGTACAGAAATAAAAAAAAAA [XGTACX_site6066]” are within error of each other in “gcPBM binding intensity (ln)” value: 8.24 ± 0.45 for the first, 8.12 ± 0.58 for the second.

Going from “GCTAATTTATTTTGCAGTACATATATAATAATATAT [XGTACX_site478]” to “TTTTTATTTAATAGTTGTACATTGAAAAATATGTAT [XGTACX_site3025]”, the “gcPBM binding intensity (ln)” value falls from 8.39 ± 0.16 to 7.75 ± 0.33.
